Source: PubChem BioAssay AID224 (DTP/NCI, 2004)
Inconclusive results and toxic doses are left out. Some entries of the source have several records that differ or are many. The list is limited to them. There may be further records. The values listed for one entry are repeated measurements in other runs, samples, wells, individuals or studies.

Tested on: P335 leukemia ip, BDF1 mice, survival T/C %
Experiment: NCI In Vivo Anticancer Drug Screen. Data for tumor model P335 Leukemia (intraperitoneal) in B6D2F1 (BDF1) mice
Conditions: endpoint: mean survival time, schedule: Q01DX Z (ip), higher = longer survival
Description: The antitumor activity of compounds was measured in mice bearing transplantable tumors. Survival or tumor size were measured and the results are expressed as the measurement made in the treated group (T) divided by the measurement made in the vehicle treated control group (C). The tumor model used in this assay is P335 Leukemia (intraperitoneal) in B6D2F1 (BDF1) mice

O=P1(N(CCCl)CCCl)NCCCO1 (centres undefined) was tested, and the T/C (dose: 100.0 mg/kg/injection, vehicle: saline) was 97 % of control and 182 % of control.
CC[C@]1(O)C[C@H]2CN(CCc3c([nH]c4ccccc34)[C@@](C(=O)OC)(c3cc4c(cc3OC)N(C=O)[C@H]3[C@@](O)(C(=O)OC)[C@H](OC(C)=O)[C@]5(CC)C=CCN6CC[C@]43[C@@H]65)C2)C1 was tested, and the T/C (dose: 0.25 mg/kg/injection, vehicle: water) was 91 % of control, 100 % of control, 294 % of control.
In the case of CSc1ncnc2c1ncn2C1OC(CO)C(O)C1O (centres undefined), the T/C (dose: 12.5 mg/kg/injection, vehicle: carboxymethylcellulose (CMC)) is reported as 108 % of control and 175 % of control.
In the case of Nc1nc(N)c2nc(CNc3ccc(C(=O)NC(CCC(=O)O)C(=O)O)cc3)cnc2n1 (centres undefined), the T/C (dose: 125.0 micrograms/kg/injection, vehicle: alkali diluted with saline) is reported as 100 % of control and 164 % of control.
